# Measured values published in PMC4336329 (PLoS ONE, 2015).
# About 2,200 (0.71%) of roughly 310,000 compounds showed an effect of 50% or more. The effect is printed as a negative number. The list shows a part of the results.
# Molecular target: human ether-à-go-go-related gene (hERG) potassium channel (human, UniProt Q12809)
# Assay: primary screen, population patch clamp on CHO cells stably expressing hERG
# human ether-à-go-go-related gene (hERG) potassium channel, sequence (Q12809 whole entry, looked up): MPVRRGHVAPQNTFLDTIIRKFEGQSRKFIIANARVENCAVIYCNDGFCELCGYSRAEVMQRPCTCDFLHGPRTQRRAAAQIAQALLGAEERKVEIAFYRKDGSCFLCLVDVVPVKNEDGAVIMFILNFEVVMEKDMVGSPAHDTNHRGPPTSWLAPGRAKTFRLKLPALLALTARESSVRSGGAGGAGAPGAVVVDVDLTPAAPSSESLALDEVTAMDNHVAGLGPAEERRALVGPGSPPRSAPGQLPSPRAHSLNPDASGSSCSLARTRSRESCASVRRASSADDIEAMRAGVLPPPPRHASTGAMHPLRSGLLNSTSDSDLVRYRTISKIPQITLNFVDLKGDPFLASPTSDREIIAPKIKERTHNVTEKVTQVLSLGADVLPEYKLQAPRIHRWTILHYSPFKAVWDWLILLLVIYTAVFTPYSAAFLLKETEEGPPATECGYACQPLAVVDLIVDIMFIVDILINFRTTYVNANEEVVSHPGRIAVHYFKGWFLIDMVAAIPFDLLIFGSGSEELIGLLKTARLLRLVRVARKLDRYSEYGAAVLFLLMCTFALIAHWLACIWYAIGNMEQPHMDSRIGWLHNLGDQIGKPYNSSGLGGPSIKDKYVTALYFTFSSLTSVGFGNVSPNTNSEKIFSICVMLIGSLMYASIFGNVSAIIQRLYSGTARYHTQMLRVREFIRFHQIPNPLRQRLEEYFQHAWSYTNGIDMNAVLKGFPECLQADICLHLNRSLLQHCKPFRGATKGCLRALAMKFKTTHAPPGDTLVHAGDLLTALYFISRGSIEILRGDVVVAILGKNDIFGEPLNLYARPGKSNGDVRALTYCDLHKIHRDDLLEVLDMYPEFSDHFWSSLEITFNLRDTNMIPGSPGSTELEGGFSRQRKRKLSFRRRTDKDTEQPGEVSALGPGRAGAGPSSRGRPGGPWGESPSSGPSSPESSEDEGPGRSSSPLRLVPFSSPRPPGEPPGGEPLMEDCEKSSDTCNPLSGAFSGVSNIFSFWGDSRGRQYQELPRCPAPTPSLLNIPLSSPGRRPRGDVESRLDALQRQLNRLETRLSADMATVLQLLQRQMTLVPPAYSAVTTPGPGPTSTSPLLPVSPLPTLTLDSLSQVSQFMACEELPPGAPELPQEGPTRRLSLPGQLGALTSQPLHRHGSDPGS
row,Compound,"hERG current change (%, negative = inhibition) at 1uM"
1,O=P(COCCOCCOCP(=O)(c1ccccc1)c1ccccc1)(c1ccccc1)c1ccccc1,4.89%
2,COc1ccc(S(=O)(=O)N2CCN(CC(=O)Nc3sccc3C(N)=O)CC2)cc1OC,-0.607%
3,O=C(NN=C1CCCC1)c1ccn[nH]1,12%
4,CCN1CCN(Cc2ccc(NC(=O)c3cc(NC(=O)C(=O)c4c[nH]c5ccccc45)cc(OC)c3)cc2C(F)(F)F)CC1,11.4%
5,O=C(C1CC(=O)N(c2ccc3c(c2)OCCO3)C1)N1CCN(c2cccc(C(F)(F)F)c2)CC1 (stereo not shown),10.8%
6,N#CC1=C(N)Nc2ncnn2C1c1ccc(F)cc1 (stereo not shown),-0.339%
7,CCOc1ccc(CC(=O)NCC(=O)NCc2cc(=O)n(C)c(=O)n2C)cc1,9.39%
8,COc1ccc(S(=O)(=O)N2CCCCC2)cc1NC(=O)CN(Cc1ccco1)Cc1ccco1,-2.88%
9,CCCCn1c(N)c(N(CCOC)C(=O)C2CCN(S(=O)(=O)c3ccc(C)c(C)c3)CC2)c(=O)[nH]c1=O,-2.45%
10,O=C(O)CNC(=O)/C(=C\c1ccco1)NC(=O)c1ccco1,14.4%
11,CC/C=C\[C@H](O)[C@H](O)C1=C(C)C(=O)[C@]2(O1)C(=O)N[C@@](OC)(C(=O)c1ccccc1)C2O (stereo partly shown),6.73%
12,COc1ccc(-c2noc(=O)n2Cc2ccc(F)cc2Cl)cc1,9.8%
13,CCc1ccc(Nc2n[n+](-c3ccccc3)c(-c3ccc(C(=O)O)cc3)s2)cc1.[Cl-],10.4%
14,Cc1ccc(NC(=O)COC(=O)C2CCC2)cc1S(=O)(=O)N1CCCCC1,9.55%
15,CC(=O)NCCc1c[nH]c2ccc(O)cc12,17.9%
16,COc1ccc(CN2CCC(N3CC(C)OC(C)C3)CC2)c(OC)c1OC.O=C(O)C(=O)O (stereo not shown),2.62%
17,CS(=O)(=O)c1cccc(C(=O)Nc2ccccc2Cc2ccccc2)c1,6.78%
18,N#CC(C(N)=O)=C1CCCCC1,3.82%
19,Cc1ccc(-n2cc(CNC(C)Cn3cncn3)c(-c3ccc(F)cc3)n2)cc1 (stereo not shown),-16.9%
20,Cc1nnc(N2CCN(Cc3ccccc3)CC2)[nH]c1=O,11.9%
21,CC(=O)C1=C(C)OC2(O)c3ccccc3C(=O)C12O (stereo not shown),11.9%
22,c1ccc(Cn2nnc3c(N4CCC5(CC4)OCCO5)ncnc32)cc1,7.37%
23,COCCn1nnnc1C(c1cc2cc(C)ccc2[nH]c1=O)N1CCc2ccccc21 (stereo not shown),9.19%
24,CCC(CC)C(=O)Nc1cc(C)c2c(=O)oc3ccccc3c2n1,2.02%
25,O=C(CNS(=O)(=O)c1ccc(Br)s1)N1CCC2(CC1)OCCO2,2.52%
26,Cc1ccccc1OCCNc1cc(N2CC(C)NC(C)C2)ccc1[N+](=O)[O-] (stereo not shown),12.7%
27,COCCSc1ccccc1C(=O)Nc1nncs1,12%
28,O=C(CCc1ccccc1)Nc1cccc(-c2nnc(-c3ccco3)o2)c1,7.31%

row,Compound,"hERG current change (%, negative = inhibition) at 1uM"
1,Cc1cc(Cl)ccc1NC(=O)COC(=O)CCNS(=O)(=O)c1ccccc1,1.75%
2,Cc1noc(C(=O)Nc2ccc(F)cc2F)c1Cl,11.4%
3,CC(=O)NS(=O)(=O)c1ccc(NC(=O)c2ccc(Cl)cc2[N+](=O)[O-])cc1,8.48%
4,CCc1ccc(NC(=O)Cn2cnc3c(=O)n(C)c(=O)n(C)c32)cc1,10.9%
5,COc1ccc(S(=O)(=O)N2CCOCC2)cc1NC(=O)COC(=O)C1COc2ccccc2O1 (stereo not shown),14.1%
6,CCOc1nc2ccccc2nc1NS(=O)(=O)c1ccccc1,0.566%
7,Cc1cccc(C)c1OCCN1CCOCC1.O=C(O)C(=O)O,12.2%
8,CN(C)CCCn1c(=O)n(CCc2ccccc2)c(=O)c2c3c(sc21)CCCCC3,2.17%
9,COC(=O)c1cc(-c2ccc(OC)c(OC)c2)c2c(=O)[nH]c(=O)n(C)c2n1,14.8%
10,C#CCSc1nc(-c2cccs2)ccc1C#N,-4.73%
11,Cc1ccc([N+](=O)[O-])cc1NC(=O)/C=C/C(=O)O,-2.92%
12,CCOc1ccccc1NC(=O)NC1CCCc2ccccc21 (stereo not shown),12.7%
13,O=C(Cn1ccc(C(F)(F)F)n1)Nc1ccc(S(=O)(=O)NCc2ccco2)cc1,11.2%
14,CCCCN(C(=O)c1cc(S(=O)(=O)N2CCCCCC2)ccc1OC)c1c(N)n(CCC)c(=O)[nH]c1=O,9.07%
15,Cn1c(=O)c2c(nc(CN3CCN(c4ccccc4)CC3)n2Cc2c(F)cccc2Cl)n(C)c1=O,0.511%
16,COC(=O)C1=C(C(=O)OC)C(c2ccccc2O)c2sc(=O)[nH]c2S1 (stereo not shown),-1.06%
17,CCc1ccccc1N(CC(=O)NCc1ccc(OC)cc1)C(=O)CCC(=O)Nc1ccccn1,14.2%
18,CC1CCCC(NC(=S)NC(=O)c2cncc(Br)c2)C1C (stereo not shown),19.7%
19,COc1ccccc1-c1nc(C#N)c(N2CC(C)CC(C)C2)o1 (stereo not shown),6.95%
20,CN(C)CC#CCn1c2ccccc2c2ccccc21.Cl,10.1%
21,O=C(COc1ccccc1)Nc1nnc(S(=O)(=O)Nc2ccccc2)s1,11.3%
22,CCCc1nnc(NC(=O)CS(=O)(=O)c2ccccc2)s1,10.2%
23,C[C@]12CCC3C(CC[C@H]4CCCC[C@]34C)C1CC[C@@]2(O)CNCCO (stereo partly shown),10.1%
24,Cc1cc(C)c(S(=O)(=O)N2C=CC(C(F)(F)F)=NCC2)c(C)c1,17.3%
25,O=C(Nc1nnc(CCc2ccccc2)s1)c1ccco1,8.21%
26,C=CCN1C(=O)OC2(CCCCC2)C1(C)O (stereo not shown),4.4%
27,CCOc1cc(/C=C(\C#N)C(=O)Nc2cccc(C(=O)O)c2)ccc1OCc1ccccc1Cl,14.6%
